A lower IC50 marks a more sensitive line; where the fit passes the top or lowest dose, that dose stands as a limit. AUC sums up the same curve from the lowest dose to the 256-fold higher top dose; values near 1 show little effect. For part of these data: The top dose, if marked as inferred, was derived from the fitted curves, not read from the paper. For part of these data: Where an entry number is given, a second screen of the drug exists; the two often differ.
Columns and labels:
Assay in all cases: Viability of human cancer cell lines after 72 h of drug (GDSC screen)
[1] = compound: CC1(C)CC(=O)c2c(C(F)(F)F)nn(-c3ccc(C(N)=O)c(N[C@H]4CC[C@H](O)CC4)c3)c2C1 [SNX-2112]; conditions: top dose 2.56 µM
Description: (§1)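 Human cancer cell lines in 384-well plates, medium with 10% serum, drug for 72 h over a 256-fold dose range (nine 2-fold or five 4-fold steps up to the top dose). Adherent lines were fixed and stained with the nucleic acid dye Syto60, suspension lines read with resazurin; signal relative to control wells, capped at 0 and 100%. One two-parameter sigmoid per drug and line, fitted in a mixed model over all curves with the slope shared within a line.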

[2] = compound: CC[C@]1(O)C[C@@H]2CN(CCc3c([nH]c4ccccc34)[C@@](C(=O)OC)(c3cc4c(cc3OC)N(C)[C@H]3[C@@](O)(C(=O)OC)[C@H](OC(C)=O)[C@]5(CC)C=CCN6CC[C@]43[C@@H]65)C2)C1 [Vinblastine]; conditions: top dose 0.1 µM; top dose inferred
Description: as §1

[3] = compound: CN(C)C/C=C/C(=O)Nc1cc2c(Nc3ccc(F)c(Cl)c3)ncnc2cc1O[C@H]1CCOC1 [Afatinib]
Description: as §1

[4] = compound: CN(c1ncccc1CNc1nc(Nc2ccc3c(c2)CC(=O)N3)ncc1C(F)(F)F)S(C)(=O)=O [PF-562271]; conditions: top dose 2.56 µM; top dose inferred
Description: as §1

[5] = compound: O=C(NC1CC1)c1cccc(-c2ccc3c(NC(=O)C4CC4)n[nH]c3c2)c1 [XMD13-2]; conditions: top dose 10.24 µM; top dose inferred
Description: as §1

[6] = top dose 0.5 µM, screen: GDSC drug entry 1032
[7] = top dose 10 µM, screen: GDSC drug entry 1377, top dose inferred

Cell Line	AUC [1]	IC50 [1] [nM]	AUC [2]	IC50 [2] [nM]	AUC [3, 6]	IC50 [3, 6] [nM]	AUC [3, 7]	IC50 [3, 7] [nM]	AUC [4]	IC50 [4] [nM]	AUC [5]	IC50 [5] [nM]
OCI-LY-19 (B-cell lymphoma, suspension)	0.198	22.3	0.461	4.92	0.988	> 500	0.947	> 10000	0.908	> 2560	0.707	2320
SF268 (glioma, adherent)	0.668	488	0.544	8.32	0.984	> 500	0.965	> 10000	0.909	> 2560	0.899	> 10200
SW962 (urogenital system, adherent)	0.669	532	0.649	18	0.942	> 500	0.955	> 10000	0.947	> 2560	0.959	> 10200
KCL-22 (chronic myeloid leukaemia, suspension)	0.281	43.3	0.653	15.4	0.991	> 500	0.978	> 10000	0.917	> 2560	0.782	3580
SK-N-AS (neuroblastoma, adherent)	0.83	1960	0.656	18.2	0.984	> 500	0.982	> 10000	0.958	> 2560	0.836	8340
PSN1 (pancreas, adherent)	0.185	22.6	0.281	1.69	0.991	> 500	0.985	> 10000	0.97	> 2560	0.889	8430
PANC-02-03 (pancreas, adherent)	0.501	161	0.556	9.16	0.784	260	0.849	9880	0.939	> 2560	0.95	> 10200
SBC-3 (small cell lung carcinoma, adherent)	0.111	10.4	0.535	7.71	0.989	> 500	0.975	> 10000	0.876	2160	0.681	1940
CAL-39 (cervix, adherent)	0.779	1090	0.487	5.75	0.701	–	0.775	4120	0.86	2290	0.955	> 10200
Ca9-22 (head and neck, adherent)	0.512	172	0.468	5.15	0.617	63.9	0.256	134	0.908	> 2560	0.846	6660
IST-MEL1 (melanoma, adherent)	0.348	55.7	0.501	6.31	0.965	> 500	0.974	> 10000	0.91	> 2560	0.941	> 10200
AsPC-1 (pancreas, adherent)	0.701	893	0.613	16	0.923	> 500	–	–	0.96	> 2560	0.945	> 10200
OMC-1 (cervix, adherent)	0.474	135	0.857	87.8	0.944	> 500	0.948	> 10000	0.988	> 2560	0.969	> 10200
WSU-DLCL2 (B-cell lymphoma, suspension)	0.894	2160	0.406	3.62	0.993	> 500	0.979	> 10000	0.992	> 2560	0.918	> 10200
NCI-H2444 (non-small cell lung carcinoma, adherent)	0.988	> 2560	0.936	> 100	0.979	> 500	0.987	> 10000	0.964	> 2560	0.988	> 10200
T-T (oesophagus, adherent)	0.626	355	0.424	3.87	0.763	180	0.758	3460	0.872	2430	0.973	> 10200
TE-1 (oesophagus, adherent)	0.922	> 2560	0.588	11.6	0.813	363	0.805	6740	0.95	> 2560	0.963	> 10200
OCI-AML3 (acute myeloid leukaemia, suspension)	0.369	73.8	0.555	8.62	0.979	> 500	0.977	> 10000	0.989	> 2560	0.863	6870
SLVL (B-cell lymphoma, suspension)	0.224	23.6	0.738	31.3	0.984	> 500	0.968	> 10000	0.906	> 2560	0.76	3820
HMV-II (melanoma, adherent)	0.689	616	0.637	16.3	0.978	> 500	0.98	> 10000	0.853	> 2560	0.873	> 10200
OCUB-M (breast, adherent)	0.295	46.5	0.707	21.8	0.954	> 500	0.552	851	0.928	> 2560	0.7	2130

Source: the supplement of paper PMC4967469
